According to the supplement of paper PMC8728848:
Some of the results follow.

Key:
Test in all cases: glycan array binding signal (z-score within array); higher = stronger binding
Conditions in all cases: glycan notation: IUPAC condensed, linker removed
[1] = target: Fuc(a1-2)Gal(b1-4)[Fuc(a1-3)]GlcNAc(b1-3)[Neu5Ac(a2-6)Gal(b1-4)GlcNAc(b1-6)]Gal(b1-4)Glc
In short: (§1)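 From the Consortium for Functional Glycomics database, 3228 arrays were curated, keeping only those whose protein sequence was available. Binding is given as a within-array Z-score averaged across arrays sharing a protein sequence and across linkers. Negative Z-scores can be read as non-binding.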

[2] = target: Fuc(a1-2)Gal3S(b1-4)GlcNAc
In short: as §1

[3] = target: Fuc(a1-2)Gal6S(b1-3)GlcNAc
In short: as §1

[4] = target: Fuc(a1-2)Gal6S(b1-3)GlcNAc6S
In short: as §1

Fuc(a1-2)Gal6S(b1-4)Glc = target: Fuc(a1-2)Gal6S(b1-4)Glc
In short: as §1

[5] = target: Fuc(a1-2)Gal6S(b1-4)Glc6S
In short: as §1

[6] = target: Fuc(a1-2)Gal6S(b1-4)GlcNAc
In short: as §1

Fuc(a1-2)GlcNAc = target: Fuc(a1-2)GlcNAc
In short: as §1

Fuc(a1-2)[Gal(a1-3)]Gal = target: Fuc(a1-2)[Gal(a1-3)]Gal
In short: as §1

[7] = target: Fuc(a1-2)[Gal(a1-3)]Gal(b1-3)GalNAc
In short: as §1

[8] = target: Fuc(a1-2)[Gal(a1-3)]Gal(b1-3)GalNAc(b1-3)Gal(a1-4)Gal(b1-4)Glc
In short: as §1

[9] = target: Fuc(a1-2)[Gal(a1-3)]Gal(b1-3)GlcNAc
In short: as §1

[10] = target: Fuc(a1-2)[Gal(a1-3)]Gal(b1-3)GlcNAc(b1-2)Man(a1-3)[Fuc(a1-2)[Gal(a1-3)]Gal(b1-3)GlcNAc(b1-2)Man(a1-6)]Man(b1-4)GlcNAc(b1-4)GlcNAc
In short: as §1

[11] = target: Fuc(a1-2)[Gal(a1-3)]Gal(b1-3)GlcNAc(b1-2)Man(a1-3)[Fuc(a1-2)[Gal(a1-3)]Gal(b1-3)GlcNAc(b1-2)Man(a1-6)]Man(b1-4)GlcNAc(b1-4)[Fuc(a1-6)]GlcNAc
In short: as §1

[12] = target: Fuc(a1-2)[Gal(a1-3)]Gal(b1-3)GlcNAc(b1-3)GalNAc
In short: as §1

[13] = target: Fuc(a1-2)[Gal(a1-3)]Gal(b1-3)GlcNAc(b1-6)GalNAc
In short: as §1

[14] = target: Fuc(a1-2)[Gal(a1-3)]Gal(b1-4)Glc
In short: as §1

[15] = target: Fuc(a1-2)[Gal(a1-3)]Gal(b1-4)GlcNAc
In short: as §1

[16] = target: Fuc(a1-2)[Gal(a1-3)]Gal(b1-4)GlcNAc(b1-2)Man
In short: as §1

[17] = target: Fuc(a1-2)[Gal(a1-3)]Gal(b1-4)GlcNAc(b1-2)Man(a1-3)[Fuc(a1-2)[Gal(a1-3)]Gal(b1-4)GlcNAc(b1-2)Man(a1-6)]Man(b1-4)GlcNAc(b1-4)GlcNAc
In short: as §1

[18] = target: Fuc(a1-2)[Gal(a1-3)]Gal(b1-4)GlcNAc(b1-2)Man(a1-3)[Fuc(a1-2)[Gal(a1-3)]Gal(b1-4)GlcNAc(b1-2)Man(a1-6)]Man(b1-4)GlcNAc(b1-4)[Fuc(a1-6)]GlcNAc
In short: as §1

[19] = target: Fuc(a1-2)[Gal(a1-3)]Gal(b1-4)GlcNAc(b1-3)Gal(b1-4)Glc
In short: as §1

[20] = target: Fuc(a1-2)[Gal(a1-3)]Gal(b1-4)GlcNAc(b1-3)GalNAc
In short: as §1

[21] = target: Fuc(a1-2)[Gal(a1-3)]Gal(b1-4)GlcNAc(b1-3)[Fuc(a1-2)[Gal(a1-3)]Gal(b1-4)GlcNAc(b1-6)]GalNAc
In short: as §1

[22] = target: Fuc(a1-2)[Gal(a1-3)]Gal(b1-4)GlcNAc(b1-6)GalNAc
In short: as §1

[23] = target: Fuc(a1-2)[Gal(a1-3)]Gal(b1-4)[Fuc(a1-3)]Glc
In short: as §1

[24] = target: Fuc(a1-2)[Gal(a1-3)]Gal(b1-4)[Fuc(a1-3)]GlcNAc
In short: as §1

[25] = target: Fuc(a1-2)[Gal(a1-3)]Gal(b1-4)[Fuc(a1-3)]GlcNAc(b1-3)GalNAc
In short: as §1

[26] = target: Fuc(a1-2)[Gal(a1-4)]Gal(b1-4)GlcNAc
In short: as §1

[27] = target: Fuc(a1-2)[GalNAc(a1-3)]Gal
In short: as §1

[28] = target: Fuc(a1-2)[GalNAc(a1-3)]Gal(b1-3)GalNAc(a1-3)[Fuc(a1-2)]Gal(b1-4)GlcNAc
In short: as §1

[29] = target: Fuc(a1-2)[GalNAc(a1-3)]Gal(b1-3)GalNAc(b1-3)Gal(a1-4)Gal(b1-4)Glc
In short: as §1

[30] = target: Fuc(a1-2)[GalNAc(a1-3)]Gal(b1-3)GlcNAc
In short: as §1

[31] = target: Fuc(a1-2)[GalNAc(a1-3)]Gal(b1-3)GlcNAc(b1-2)Man(a1-3)[Fuc(a1-2)[GalNAc(a1-3)]Gal(b1-3)GlcNAc(b1-2)Man(a1-6)]Man(b1-4)GlcNAc(b1-4)GlcNAc
In short: as §1

[32] = target: Fuc(a1-2)[GalNAc(a1-3)]Gal(b1-3)GlcNAc(b1-2)Man(a1-3)[Fuc(a1-2)[GalNAc(a1-3)]Gal(b1-3)GlcNAc(b1-2)Man(a1-6)]Man(b1-4)GlcNAc(b1-4)[Fuc(a1-6)]GlcNAc
In short: as §1

[33] = target: Fuc(a1-2)[GalNAc(a1-3)]Gal(b1-3)GlcNAc(b1-3)Gal(b1-4)Glc
In short: as §1

[34] = target: Fuc(a1-2)[GalNAc(a1-3)]Gal(b1-3)GlcNAc(b1-3)GalNAc
In short: as §1

[35] = target: Fuc(a1-2)[GalNAc(a1-3)]Gal(b1-3)GlcNAc(b1-6)GalNAc
In short: as §1

[36] = target: Fuc(a1-2)[GalNAc(a1-3)]Gal(b1-3)[Fuc(a1-4)]GlcNAc(b1-3)Gal(b1-4)Glc
In short: as §1

[37] = target: Fuc(a1-2)[GalNAc(a1-3)]Gal(b1-4)Glc
In short: as §1

[38] = target: Fuc(a1-2)[GalNAc(a1-3)]Gal(b1-4)GlcNAc
In short: as §1

[39] = target: Fuc(a1-2)[GalNAc(a1-3)]Gal(b1-4)GlcNAc(b1-2)Man
In short: as §1

[40] = target: Fuc(a1-2)[GalNAc(a1-3)]Gal(b1-4)GlcNAc(b1-2)Man(a1-3)[Fuc(a1-2)[GalNAc(a1-3)]Gal(b1-4)GlcNAc(b1-2)Man(a1-6)]Man(b1-4)GlcNAc(b1-4)GlcNAc
In short: as §1

[41] = target: Fuc(a1-2)[GalNAc(a1-3)]Gal(b1-4)GlcNAc(b1-2)Man(a1-3)[Fuc(a1-2)[GalNAc(a1-3)]Gal(b1-4)GlcNAc(b1-2)Man(a1-6)]Man(b1-4)GlcNAc(b1-4)[Fuc(a1-6)]GlcNAc
In short: as §1

[42] = target: Fuc(a1-2)[GalNAc(a1-3)]Gal(b1-4)GlcNAc(b1-3)Gal(b1-4)GlcNAc
In short: as §1

B1: CLEC5A (Homo sapiens), Q9NY25 (protein)
chain: MNWHMIISGLIVVVLKVVGMTLFLLYFPQIFNKSNDGFTTTRSYGTVSQIFGSSSPSPNGFITTRSYGTVCPKDWEFYQARCFFLSTSESSWNESRDFCKGKGSTLAIVNTPEKLKFLQDITDAEKYFIGLIYHREEKRWRWINNSVFNGNVTNQNQNFNCATIGLTKTFDAASCDISYRRICEKNAK
[1]
  glycan array binding signal (z-score): -0.136
[2]
  glycan array binding signal (z-score): 0.011
[3]
  glycan array binding signal (z-score): -0.07
[4]
  glycan array binding signal (z-score): 0.437
Fuc(a1-2)Gal6S(b1-4)Glc
  glycan array binding signal (z-score): 0.131
[5]
  glycan array binding signal (z-score): -0.512
[6]
  glycan array binding signal (z-score): 1.13
Fuc(a1-2)GlcNAc
  glycan array binding signal (z-score): -0.133
Fuc(a1-2)[Gal(a1-3)]Gal
  glycan array binding signal (z-score): -0.247
[7]
  glycan array binding signal (z-score): -0.162
[8]
  glycan array binding signal (z-score): -0.152
[9]
  glycan array binding signal (z-score): -0.016
[10]
  glycan array binding signal (z-score): -0.16
[11]
  glycan array binding signal (z-score): -0.137
[12]
  glycan array binding signal (z-score): -0.125
[13]
  glycan array binding signal (z-score): -0.164
[14]
  glycan array binding signal (z-score): -0.277
[15]
  glycan array binding signal (z-score): -0.453
[16]
  glycan array binding signal (z-score): -0.113
[17]
  glycan array binding signal (z-score): 0.116
[18]
  glycan array binding signal (z-score): -0.131
[19]
  glycan array binding signal (z-score): -0.32
[20]
  glycan array binding signal (z-score): -0.159
[21]
  glycan array binding signal (z-score): 2
[22]
  glycan array binding signal (z-score): -0.177
[23]
  glycan array binding signal (z-score): -0.09
[24]
  glycan array binding signal (z-score): 0.02
[25]
  glycan array binding signal (z-score): -0.19
[26]
  glycan array binding signal (z-score): -0.354
[27]
  glycan array binding signal (z-score): -0.165
[28]
  glycan array binding signal (z-score): 0.024
[29]
  glycan array binding signal (z-score): -0.199
[30]
  glycan array binding signal (z-score): -0.185
[31]
  glycan array binding signal (z-score): -0.158
[32]
  glycan array binding signal (z-score): -0.21
[33]
  glycan array binding signal (z-score): -0.32
[34]
  glycan array binding signal (z-score): -0.026
[35]
  glycan array binding signal (z-score): -0.149
[36]
  glycan array binding signal (z-score): -0.32
[37]
  glycan array binding signal (z-score): 0.033
[38]
  glycan array binding signal (z-score): -0.177
[39]
  glycan array binding signal (z-score): -0.218
[40]
  glycan array binding signal (z-score): 0.322
[41]
  glycan array binding signal (z-score): 0.189
[42]
  glycan array binding signal (z-score): 0.56
